Experimental data published in the supplement of paper PMC4967469.
pIC50: −log10 of the molar value. A lower IC50 marks a more sensitive line; fits outside the tested doses are given as limits. AUC is the area under the same curve over the 256-fold range up to the top dose, as a fraction; the more sensitive the line, the further below 1. For part of these data: The top dose, if marked as inferred, is not printed in the source and was worked back from the curve model. For part of these data: Where an entry number is given, a second screen of the drug exists; the two often differ.

Key:
Test in all cases: Viability of human cancer cell lines after 72 h of drug (GDSC screen)
FTI-277 = compound: COC(=O)[C@H](CCSC)NC(=O)c1ccc(NC[C@@H](N)CS)cc1-c1ccccc1 [FTI-277]; conditions: top dose 1.024 µM; top dose inferred
Method: (§1)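 Human cancer cell lines in 384-well plates, medium with 10% serum, drug for 72 h over a 256-fold dose range (nine 2-fold or five 4-fold steps up to the top dose). Adherent lines were fixed and stained with the nucleic acid dye Syto60, suspension lines read with resazurin; signal relative to control wells, capped at 0 and 100%. One two-parameter sigmoid per drug and line, fitted in a mixed model over all curves with the slope shared within a line.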

OSI-906 = compound: C[C@]1(O)C[C@@H](c2nc(-c3ccc4ccc(-c5ccccc5)nc4c3)c3c(N)nccn32)C1 [OSI-906]; conditions: top dose 2.56 µM; top dose inferred
Method: as §1

Belinostat = compound: O=C(/C=C/c1cccc(S(=O)(=O)Nc2ccccc2)c1)NO [Belinostat]; conditions: top dose 20 µM; top dose inferred
Method: as §1

CGP-60474 = compound: OCCCNc1cc(-c2ccnc(Nc3cccc(Cl)c3)n2)ccn1 [CGP-60474]; conditions: top dose 0.256 µM; top dose inferred
Method: as §1

JQ1 = compound: Cc1sc2c(c1C)C(c1ccc(Cl)cc1)=N[C@@H](CC(=O)OC(C)(C)C)c1nnc(C)n1-2 [JQ1]
Method: as §1

JNJ-26854165 = compound: c1ccc2c(CCNc3ccc(Nc4ccncc4)cc3)c[nH]c2c1 [JNJ-26854165]; conditions: top dose 10 µM
Method: as §1

Cyclopamine = compound: CC1=C2C[C@H]3[C@@H](CC=C4C[C@@H](O)CC[C@@]43C)[C@@H]2CC[C@]12O[C@@H]1C[C@H](C)CN[C@H]1[C@H]2C [Cyclopamine]; conditions: top dose 16 µM; top dose inferred
Method: as §1

JNK Inhibitor VIII = compound: CCOc1nc(NC(=O)Cc2cc(OC)ccc2OC)cc(N)c1C#N [JNK Inhibitor VIII]; conditions: top dose 10 µM; top dose inferred
Method: as §1

YM155 = compound: COCC[n+]1c2c(n(Cc3cnccn3)c1C)C(=O)c1ccccc1C2=O [YM155]; conditions: top dose 5.12 µM
Method: as §1

NSC-207895 = compound: CN1CCN(c2ccc([N+](=O)[O-])c3no[n+]([O-])c23)CC1 [NSC-207895]; conditions: top dose 20 µM; top dose inferred
Method: as §1

Docetaxel = compound: CC(=O)O[C@@]12CO[C@@H]1C[C@H](O)[C@@]1(C)C(=O)[C@H](O)C3=C(C)[C@@H](OC(=O)[C@H](O)[C@@H](NC(=O)OC(C)(C)C)c4ccccc4)C[C@@](O)([C@@H](OC(=O)c4ccccc4)[C@H]21)C3(C)C [Docetaxel]; conditions: top dose 0.0125 µM
Method: as §1

SB-715992 = compound: Cc1ccc(C(=O)N(CCCN)[C@@H](c2nc3cc(Cl)ccc3c(=O)n2Cc2ccccc2)C(C)C)cc1 [SB-715992]; conditions: top dose 0.128 µM; top dose inferred
Method: as §1

AMG-706 = compound: CC1(C)CNc2cc(NC(=O)c3cccnc3NCc3ccncc3)ccc21 [AMG-706]; conditions: top dose 2 µM; top dose inferred
Method: as §1

[1] = top dose 1 µM, screen: GDSC drug entry 1218, top dose inferred
[2] = top dose 2.56 µM, screen: GDSC drug entry 163

| Cell Line | AUC (FTI-277) | pIC50 (FTI-277) | AUC (OSI-906) | pIC50 (OSI-906) | AUC (Belinostat) | pIC50 (Belinostat) | AUC (CGP-60474) | pIC50 (CGP-60474) | AUC (JQ1; [1]) | pIC50 (JQ1; [1]) | AUC (JQ1; [2]) | pIC50 (JQ1; [2]) | AUC (JNJ-26854165) | pIC50 (JNJ-26854165) | AUC (Cyclopamine) | pIC50 (Cyclopamine) | AUC (JNK Inhibitor VIII) | pIC50 (JNK Inhibitor VIII) | AUC (YM155) | pIC50 (YM155) | AUC (NSC-207895) | pIC50 (NSC-207895) | AUC (Docetaxel) | pIC50 (Docetaxel) | AUC (SB-715992) | pIC50 (SB-715992) | AUC (AMG-706) | pIC50 (AMG-706) |
| --- | --- | --- | --- | --- | --- | --- | --- | --- | --- | --- | --- | --- | --- | --- | --- | --- | --- | --- | --- | --- | --- | --- | --- | --- | --- | --- | --- | --- |
| MN-60 (B-cell leukaemia, suspension) | 0.988 | < 5.99 | 0.944 | < 5.59 | 0.261 | 6.60 | 0.84 | 6.73 | 0.97 | < 6.00 | 0.694 | 6.24 | 0.983 | < 5.00 | 0.988 | < 4.80 | 0.988 | < 5.00 | 0.034 | > 7.70 | 0.967 | < 4.70 | 0.988 | < 7.90 | 0.904 | < 6.89 | 0.988 | < 5.70 |
| MRK-nu-1 (breast, suspension) | 0.988 | < 5.99 | 0.99 | < 5.59 | 0.675 | 5.44 | 0.61 | 7.51 | 0.989 | < 6.00 | 0.87 | 5.69 | 0.916 | < 5.00 | 0.968 | < 4.80 | 0.99 | < 5.00 | 0.065 | > 7.70 | 0.798 | 5.06 | 0.977 | < 7.90 | 0.896 | < 6.89 | 0.99 | < 5.70 |
| MS-1 (small cell lung carcinoma, suspension) | 0.989 | < 5.99 | 0.827 | 5.87 | 0.195 | 6.75 | 0.783 | 7.02 | 0.991 | < 6.00 | 0.795 | 5.98 | 0.956 | < 5.00 | 0.962 | < 4.80 | 0.991 | < 5.00 | 0.08 | > 7.70 | 0.921 | < 4.70 | 0.949 | < 7.90 | 0.734 | 7.47 | 0.991 | < 5.70 |
| MSTO-211H (mesothelioma, adherent) | 0.98 | < 5.99 | 0.991 | < 5.59 | 0.613 | 5.61 | 0.967 | < 6.59 | – | – | 0.99 | < 5.59 | 0.912 | < 5.00 | 0.977 | < 4.80 | 0.987 | < 5.00 | 0.453 | 6.62 | 0.984 | < 4.70 | 0.889 | 7.92 | 0.987 | < 6.89 | 0.991 | < 5.70 |
| MZ2-MEL (melanoma, adherent) | 0.958 | < 5.99 | 0.844 | 5.63 | 0.647 | 5.46 | 0.675 | 7.27 | 0.967 | < 6.00 | 0.86 | < 5.59 | 0.966 | < 5.00 | 0.979 | < 4.80 | 0.802 | 5.23 | 0.082 | > 7.70 | 0.909 | < 4.70 | 0.73 | 8.40 | 0.875 | < 6.89 | 0.682 | 6.35 |
| NB5 (neuroblastoma, adherent) | 0.984 | < 5.99 | 0.907 | < 5.59 | 0.686 | 5.38 | 0.927 | < 6.59 | 0.976 | < 6.00 | 0.87 | 5.61 | 0.961 | < 5.00 | 0.987 | < 4.80 | 0.966 | < 5.00 | 0.736 | 5.82 | 0.987 | < 4.70 | 0.874 | 7.90 | 0.837 | 7.06 | 0.985 | < 5.70 |
| NB10 (neuroblastoma, adherent) | 0.987 | < 5.99 | 0.676 | 6.31 | 0.459 | 6.01 | 0.961 | < 6.59 | 0.987 | < 6.00 | 0.833 | 5.80 | 0.862 | 5.09 | 0.981 | < 4.80 | 0.972 | < 5.00 | 0.766 | 5.74 | 0.987 | < 4.70 | 0.895 | < 7.90 | 0.814 | 7.17 | 0.988 | < 5.70 |
| NB69 (neuroblastoma, adherent) | 0.985 | < 5.99 | 0.686 | 6.30 | 0.343 | 6.32 | 0.823 | 6.89 | – | – | 0.448 | 6.93 | 0.813 | 5.33 | 0.989 | < 4.80 | 0.984 | < 5.00 | 0.383 | 6.80 | 0.903 | < 4.70 | 0.828 | 8.18 | 0.754 | 7.41 | 0.962 | < 5.70 |
| NCI-H64 (small cell lung carcinoma, suspension) | 0.995 | < 5.99 | 0.993 | < 5.59 | 0.265 | 6.48 | 0.783 | 7.10 | – | – | 0.631 | 6.48 | 0.978 | < 5.00 | 0.996 | < 4.80 | 0.996 | < 5.00 | 0.011 | > 7.70 | 0.585 | 5.70 | 0.981 | < 7.90 | 0.705 | 7.60 | 0.994 | < 5.70 |
